Measurements: PubChem BioAssay AID1345083 (National Center for Advancing Translational Sciences (NCATS), 2018)
Among all 94,000 compounds or so, about 6,200 (6.6%) were called active. Inconclusive means that the source gave no clear call. Such entries were picked first, then a sample of the others. The call rests on the fitted dose curve; in most records, active means well fitted inhibition curve with a large enough effect; inconclusive means small, poorly fitted or top-dose-only effect; inactive means flat fitted curve, though single readings scatter. Potencies of inconclusive entries are doubtful fits and often do not repeat.

Experiment: Cytotoxic Profiling in HEK 293 Cell Line of Diverse Libraries Using Quantitative High-Throughput Screening; further: nearly all actives have a fitted effect of over 60% in size
Details: HEK 293 viability, ATP luminescence (CellTiter-Glo), 48-72 h; activity change, negative = cytotoxicity: at 115 µM (top of the series) unless noted; series mostly up to 115 µM
In short: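 HEK 293 cells seeded at 250 cells/well were exposed to compound for 48 or 72 hr at 37 degree Celsius. Viability taken as ATP content by CellTiter-Glo luminescence.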
On the % scale 0 is the no-effect control and ±100 the full control effect; potency means the concentration at half of the fitted maximal effect; tags describe the fitted curve by direction and shape.

Row | SMILES | Potency | activity change, negative = cytotoxicity | outcome
1 | Cn1c(C(=O)NCCc2ccccn2)nc2nc(-c3ccccc3)c(Cl)cc21 | inconclusive: 79.4 µM [inhibitor, partial curve, poor fit] | – | –
2 | COc1cccc(C(=O)N2CCC(Oc3ncccc3C(=O)N3CCCCC3)C2)c1OC (configuration not stated) | – | inactive: 1.24% | –
3 | COc1ccc(C2Cn3nnc(C(=O)N4CCN(C(=O)c5sccc5C)CC4)c3CO2)cc1 (configuration not stated) | inconclusive: 39.8 µM [inhibitor, partial curve, poor fit] | – | –
4 | COc1cc(NC(=O)C2=NO[C@@H]3CN(Cc4ccc(F)cc4)C[C@H]23)ccc1F | inconclusive: 100 µM [inhibitor, partial curve] | – | –
5 | CCC(C)NC(=O)C1COC2(CCN(C(=O)c3cccc(Cl)c3)CC2)N1C(=O)c1ccccc1C (configuration not stated) | inconclusive: 56.2 µM [inhibitor, partial curve, poor fit] | – | –
6 | Cc1cc(C(=O)N2CCCCCC2c2nnc(-c3ccccc3)o2)nn1C (configuration not stated) | inconclusive: 56.2 µM [inhibitor, partial curve, poor fit] | – | –
7 | COc1ccc(N2C(=O)C3(CCCCC3)C2C(=O)NCc2nc3ccccc3n2C)cc1 (configuration not stated) | inconclusive: 89.1 µM [inhibitor, partial curve, poor fit] | – | –
8 | O=S(=O)(N[C@@H]1CCOC[C@H]1O)c1ccc(Oc2ccccc2)cc1 | inconclusive: 44.7 µM [inhibitor, partial curve, poor fit] | – | –
9 | COC(=O)CNC(=O)c1nc2cccnc2n(-c2ccc(OC)cc2)c1=O | – | inactive: -4.15% | –
10 | [C-]#[N+]C1CCN(C(=O)c2cc(-c3cccc(C(F)(F)F)c3)c3nncn3n2)CC1 | – | inactive: -15.9% | –
11 | COCCN(C)C(=O)c1ccc2c(c1)NC(C)(COc1cccnc1)CO2 (configuration not stated) | inconclusive: 100 µM [inhibitor, partial curve] | – | –
12 | CCNC(=O)N1CCC(C2CCN(C(C)=O)CC2)C1 (configuration not stated) | – | – | inactive
13 | N#Cc1ccc(CN2CCn3c(nn(-c4cccc(Cl)c4)c3=O)C2)cc1 | inconclusive: 79.4 µM [inhibitor, partial curve] | – | –
14 | Cc1ccccc1CC(=O)NCc1nnc2ccc(-c3ccccc3)nn12 | inconclusive: 50.1 µM [inhibitor, partial curve, poor fit] | – | –
15 | O=C(NCCC1CCN(C(=O)Nc2cc(F)ccc2F)CC1)c1cccc(F)c1 | inconclusive: 89.1 µM [inhibitor, single point] | – | –
16 | CCCN1CCCC2(Cc3ccccc3CN(C(=O)c3c(C)noc3C)C2)C1 (configuration not stated) | – | inactive: -25% | –
17 | Cc1ccsc1C(=O)N1CCC2(CC1)CC(N(Cc1ccc(F)cc1)C1CC1)CCO2 (configuration not stated) | inconclusive: 44.7 µM [inhibitor, partial curve, poor fit] | – | –
18 | COc1cccc(-c2cc(C(=O)NCCn3nc(C)c(Cl)c3C)[nH]n2)c1 | inconclusive: 50.1 µM [inhibitor, partial curve, poor fit] | – | –
19 | O=C(NCc1ccccc1)N[C@H]1CO[C@H]2[C@@H]1OC[C@@H]2n1cc(-c2ccccn2)nn1 | – | – | inactive [at 172 µM]
20 | Cc1ccc(CNC(=O)c2ccc3c(c2)CN(Cc2cccnc2Cl)CCO3)cc1 | inconclusive: 50.1 µM [inhibitor, partial curve, poor fit] | – | –
21 | COc1ccc(S(=O)(=O)N[C@H]2C[C@@H](c3nc(-c4ccc5c(c4)OCO5)no3)N(C)C2)cc1 | inconclusive: 25.1 µM [inhibitor, partial curve, poor fit] | – | –

Row | SMILES | Potency | activity change, negative = cytotoxicity | outcome
22 | O=C1CC(c2noc(-c3nccc4ccccc34)n2)CN1C1CCCCC1 (configuration not stated) | inconclusive: 50.1 µM [inhibitor, partial curve, poor fit] | – | –
23 | Cc1ncc2c(N3CC4CCC(C3)N4CC(F)(F)F)nc3ccccc3n12 | inconclusive: 79.4 µM [inhibitor, partial curve, poor fit] | – | –
24 | COCCN1CCNc2nc(COc3ccc(Cl)cc3OC)n(Cc3ccccc3)c2C1=O | inconclusive: 56.2 µM [inhibitor, partial curve] | – | –
25 | CC(C)c1noc(-c2cn(C3CCN(C(=O)c4cccs4)CC3)nn2)n1 | inconclusive: 50.1 µM [inhibitor, partial curve, poor fit] | – | –
26 | O=C(c1ccc(F)cc1)N1CCC(Oc2ccccc2)C1 (configuration not stated) | – | inactive: 3.74% | –
27 | CN1CCC(C(=O)N2Cc3ccccc3CC3(CCCN(Cc4cccnc4)C3)C2)CC1 (configuration not stated) | – | inactive: -6.31% | –
28 | O=C(Nc1ccccc1)N1CCc2nn(Cc3ccccc3)c(=O)n2CC1 | – | inactive: -8.77% | –
29 | COc1ccc(-c2ccc(C(=O)NC3CCCC3)cc2)nn1 | inconclusive: 126 µM [inhibitor, single point] | – | –
30 | Cc1ccc(Cl)cc1NC(=O)CN1C(=O)NC(c2ccc(Cl)cc2)C2=C1COC2=O (configuration not stated) | active: 12.6 µM | – | –
31 | CC(=O)N1CCN(C(=O)C[C@@H]2CCNC[C@@H]2Cc2cc(-c3ccccc3)on2)CC1 | – | inactive: -6.03% [at 172 µM] | –
32 | CNC(=O)CCn1ncc2cc(OCc3ccccc3-c3c(F)cccc3OC)ccc21 | inconclusive: 44.7 µM [inhibitor, partial curve, poor fit] | – | –
33 | O=C(NCc1ccccc1F)C1CCN(C(=O)c2ncn3c2COC(c2ccccc2)C3)CC1 (configuration not stated) | – | inactive: 4.98% | –
34 | CN1CCN(c2ccc(-c3nccc4c(=O)cc(N(C)C5CCOCC5)oc34)cn2)CC1 | – | – | inactive [at 172 µM]
35 | COc1cccc(C(=O)NC2CCCN(c3ccnc4ccnn34)C2)c1 (configuration not stated) | inconclusive: 44.7 µM [inhibitor, partial curve, poor fit] | – | –
36 | O=C(C[C@@H]1CCNC[C@@H]1Cc1cc(CSc2ccccc2)on1)NCc1ccc2c(c1)OCO2 | active: 35.5 µM | – | –
37 | O=C(Cn1cccc1-c1nc(-c2ccccc2)no1)NCc1ccc(Cl)cc1 | inconclusive: 79.4 µM [inhibitor, partial curve, poor fit] | – | –
38 | Cc1ccc(C2NC(=O)N(CC(=O)Nc3cccc(C#N)c3)C3=C2C(=O)OC3)cc1 (configuration not stated) | inconclusive: 28.2 µM [inhibitor, full curve] | – | –
39 | C=CCC1(C(=O)O)CCCN(C(=O)CCCc2ccc(OC)cc2)C1 (configuration not stated) | inconclusive: 100 µM [inhibitor, single point] | – | –
40 | COc1ccc(C(C)NC(=O)c2ccc(Cn3ccn4nc5c(c4c3=O)CCCC5)cc2)cc1 (configuration not stated) | inconclusive: 20 µM [inhibitor, full curve, poor fit] | – | –
41 | COc1ccc(-c2nnc([C@H]3CCN(C(=O)C4CCCCC4)C3)o2)cc1 | inconclusive: 112 µM [inhibitor, single point] | – | –
42 | COc1ccccc1CC(=O)N1CCN(C(=O)c2nnn3c2COC(c2ccc(C)cc2)C3)CC1 (configuration not stated) | inconclusive: 56.2 µM [inhibitor, partial curve, poor fit] | – | –

Row | SMILES | Potency | activity change, negative = cytotoxicity | outcome
43 | CSc1ccc(-c2cccc(CN3CCC(NC(=O)c4ccc(Cl)nc4)CC3)c2)cc1 | inconclusive: 79.4 µM [inhibitor, partial curve] | – | –
44 | Cc1ccccc1NC(=O)N1CCCC(c2noc(COc3ccccc3)n2)C1 (configuration not stated) | inconclusive: 22.4 µM [inhibitor, full curve] | – | –
45 | CC(=O)N[C@@H]1C=C(C(=O)NCCC(N)=O)C[C@@H](O)[C@@H]1O | – | inactive: -11.9% [at 230 µM] | –
46 | O=C(C1CCCCC1)N1CCN2CCS(=O)(=O)N(C3CC3)C(=O)C2C1 (configuration not stated) | – | inactive: -25.5% | –
47 | Cc1nc2c(c(-c3ccc(O)cc3)n1)CN(C(=O)c1ccc(C(F)(F)F)cc1)CC2 | inconclusive: 89.1 µM [inhibitor, single point] | – | –
48 | O=C1c2c(nc(COc3cc(F)cc(F)c3)n2Cc2ccccc2)NCCN1CC1CCOCC1 | inconclusive: 50.1 µM [inhibitor, partial curve, poor fit] | – | –
49 | Cc1cccc(OCC(=O)NCCn2cccc2-c2nc(-c3ccc4c(c3)OCO4)no2)c1 | inconclusive: 50.1 µM [inhibitor, partial curve, poor fit] | – | –
50 | CC(=O)NC1(C)CN(Cc2ccc(-c3ccccc3OCc3ccccc3)s2)C1 | active: 39.8 µM | – | –
51 | COCCN1CCCC2(CCN(C(=O)CCc3ccc(C)cc3)C2)C1=O (configuration not stated) | inconclusive: 89.1 µM [inhibitor, single point] | – | –
52 | COC(=O)N1CCCC(N2C(=O)c3c(c(C)nn3-c3ccccc3)C2C(C)C)C1 (configuration not stated) | inconclusive: 50.1 µM [inhibitor, partial curve, poor fit] | – | –
53 | Cc1ccc(-c2ccc(CN)cc2)c(C)c1 | active: 31.6 µM | – | –
54 | COCCNC(=O)CCc1c(C)nn(-c2ccc(F)cc2)c1Oc1ccc(F)cc1F | inconclusive: 25.1 µM [inhibitor, partial curve, poor fit] | – | –
55 | CCOc1ccc(C(=O)N2CCCC3(C2)NC(=O)N(Cc2ccc(Cl)cc2)C3=O)cc1 (configuration not stated) | inconclusive: 79.4 µM [inhibitor, single point] | – | –
56 | Cc1noc([C@@H]2CN(C(=O)c3cc(C)oc3C)C[C@H]2COCC2CC2)n1 | inconclusive: 50.1 µM [inhibitor, partial curve, poor fit] | – | –
57 | CC(=O)N1CCN(c2nc3c(s2)CC(C(=O)Nc2ccc(F)c(Cl)c2)CC3)CC1 (configuration not stated) | active: 7.94 µM | – | –
58 | COc1cccc2c1OCCCN(C(=O)c1cn(C/C=C/c3ccccc3)nn1)C2 | inconclusive: 44.7 µM [inhibitor, partial curve] | – | –
59 | C[S+](=O)([O-])c1ccc(-c2nnc3ccc(C(=O)NCc4cccc(Cl)c4)cn23)cc1 | inconclusive: 50.1 µM [inhibitor, partial curve, poor fit] | – | –
60 | O=C(NC1CC1)c1ccc2nnc(Cc3ccc(Cl)cc3)n2c1 | inconclusive: 89.1 µM [inhibitor, single point] | – | –
61 | COCCO[C@H]1C(=O)N(C2CCN(C(=O)c3cnc(C)cn3)CC2)[C@H]1c1ccncc1 | – | inactive: 1.76% | –
62 | O=C(c1nnn2c1COC(c1ccc(Cl)cc1)C2)N1CCN(C(=O)C2(c3ccccc3)CC2)CC1 (configuration not stated) | active: 22.4 µM | – | –
